{"source": "paper PMC12136788", "binders": {"B1": {"name": "chr5:16781720:16781826:-|CDS|ENSG00000145555|unk|total|mutant (ssRNA)", "RNA": "GGGAGUUCUACAGUCCGACGAUCCUUCACAGCCCCAUCAUGGAAGCUUUCGGCAAUGCGAAGACCGUGUACAACAACAACUCCCGUCGCUUUGGGAAGUUUGUUCAGCUGAACAUCUGUCAGAAAGGAAAUAUUCAGGGCGGGCAACAGAGGAUUGAGCAUCA"}, "B2": {"name": "chr18:47206168:47206892:-|three_prime_utr|ENSG00000215474|control|control|control (ssRNA)", "RNA": "GGGAGUUCUACAGUCCGACGAUCCAGGUUCAGGAGAACCUAAGGACAAGUGACCUCAAAACAGCAUGGACAACCAUGUAAAAUAGACUGUAGCAGCCAUUCAUUAGUGGGGGGAGGGGGGAGCCAACCAGAGCAGUCAAUGCUCAACAGAGGAUUGAGCAUCA"}, "B3": {"name": "chr20:4700004:4700108:+|3pUTR|ENSG00000171867|msi1|total|mutant (ssRNA)", "RNA": "GGGAGUUCUACAGUCCGACGAUCUCACCAUCUUUCUAAUCUUUUUCCAGCUUGAGGGAGGCGGUAUCCACCUGCAGCCCUUUCCGUGGUGGUGUCUCACUCUUUCUUCUCUCUUUGUCCCGGACCGGCUAAUCAAUACCCUUGCAACAGAGGAUUGAGCAUCA"}, "B4": {"name": "chr17:39792672:39792933:-|CDS|ENSG00000161405|control|control|control (ssRNA)", "RNA": "GGGAGUUCUACAGUCCGACGAUCAGAGAAUAUAAUGAAUAUGAAAACAUUAAGUUGGAGAGACAUGUUGUCUCAUUCGAUAGUAGCAGGCCAACCAGUGGAAAGAUGAACUGCGAUGUGUGUGGAUUAUCCUGCAUCAGCUUCCAACAGAGGAUUGAGCAUCA"}, "B5": {"name": "chrX:13708825:13708941:+|CDS|ENSG00000123595|unk|FALSE|unique (ssRNA)", "RNA": "GGGAGUUCUACAGUCCGACGAUCGAGUUCACUUAUGAACAGAUAUGUAACUAAUAAGUUUGAUACCCAGCUCUUCCAUACAAUAGGUGUGGAAUUUUUAAAUAAAGAUUUGGAAGUGGAUGGACAUUUUGUUACCAUGCAGAUCAACAGAGGAUUGAGCAUCA"}, "B6": {"name": "chr4:108667705:108667793:+|3pUTR|ENSG00000198856|msi1_unk|FALSE|overlapping (ssRNA)", "RNA": "GGGAGUUCUACAGUCCGACGAUCUCUGGACAGUUGAUCAGCUUUACCUAUGGUGCUUUGCCUUUAACUAGAGUGUGUGAUGGUAGAUUAUUUCAGAUAUGUAUGUAAAACUGUUUCCUGAACAAUAAGAUGUAUGAACGGAGCCAACAGAGGAUUGAGCAUCA"}, "B7": {"name": "chr18:35263486:35263657:-|CDS|ENSG00000186814|control|control|control (ssRNA)", "RNA": "GGGAGUUCUACAGUCCGACGAUCGGAAAUGACAUCCACAGGAGCACUGAAGUCUCUGUCUCUGAAUAGCCCGGUGCAGCCCUUAGAGAACCAGUGCAAGACUGAGACUCAGGAGUCCCAGGCUUUCCAGGAGAGAGGUGAGAACAACAGAGGAUUGAGCAUCA"}, "B8": {"name": "chr5:113014749:113014850:+|3pUTR|ENSG00000172795|msi1|FALSE|unique (ssRNA)", "RNA": "GGGAGUUCUACAGUCCGACGAUCUAAAAAUCCUUUUUUACAGUGGUAUCCACAAAAUACUUCUCUGCUUAUAAAUGUUAUUGUAGAAAUCUUUAUUCUGUGUAGGUAGCCUAUUUAAUUGGGUUCCACUGAACCUCAUGGGACCAACAGAGGAUUGAGCAUCA"}, "B9": {"name": "chr1:66374421:66374522:+|3pUTR|ENSG00000184588|msi1|FALSE|bound_elsewhere (ssRNA)", "RNA": "GGGAGUUCUACAGUCCGACGAUCACUGCAUUGUUUCAGGUGGACAUUUUAUCAUUUUCAAAUGUUUCUCACAAUGUAUGUUAUAGUAUUAUUAUUAUAUAUUGUGUUCAAAUGCAUUCUAAAGAGACUUUUAUAUGAGGUGAACAACAGAGGAUUGAGCAUCA"}, "B10": {"name": "chr7:135927258:135927359:-|3pUTR|ENSG00000105887|msi1_unk|FALSE|overlapping (ssRNA)", "RNA": "GGGAGUUCUACAGUCCGACGAUCCAGCUUCAGACUGUUAUCUAUAGGCUUAUCGUUCAAAUACAGCACUUGAAUAUCCCAAGUAGUUCUUCUACGCAUAGCUCACCUUUCUAAACCCAGUUAAGCAUGGAAGAGAGGUAGUAGCAACAGAGGAUUGAGCAUCA"}, "B11": {"name": "chr3:100713726:100713879:+|CDS|ENSG00000114354|unk|total|mutant (ssRNA)", "RNA": "GGGAGUUCUACAGUCCGACGAUCACUUGGGGAGGAUAUUCGGCGAAUUCCUAUUCAUAAUGAAGAUAUUACUUAUGAUGAAUCCGUGCUAAUGAUGCAACGAGUUUUCAGAGGAAAACUUCUGAGUAAUGAUGAAGUAACAAUCAACAGAGGAUUGAGCAUCA"}, "B12": {"name": "chr10:32033860:32033975:-|CDS|ENSG00000170759|unk|FALSE|unique (ssRNA)", "RNA": "GGGAGUUCUACAGUCCGACGAUCCACAGUGGAUAAAGAUAUUACUCUUACCAAUGAUAAACCAGCAACCGCAAUUGGAGUUAUAGGAAAUUUUACUGAUGCUGAAAGAAGAAAGUGUGAAGAAGAAAUUGCUAAAUUAUACAACAACAGAGGAUUGAGCAUCA"}, "B13": {"name": "chr19:13095865:13096029:+|3pUTR|ENSG00000008441|msi1|FALSE|unique (ssRNA)", "RNA": "GGGAGUUCUACAGUCCGACGAUCCCGCCCCCCACGUGGCCACUUUUCUCUGGAUUUUAGCUGUAAUGUCUUUACUCUUUAUUUAGGGGUGGGGCAUUCAUUGUUUGGGUCUUUUGCUGUUGGAAUGGGAACUCCUCCUCCAUUCAACAGAGGAUUGAGCAUCA"}, "B14": {"name": "chr1:6592219:6592320:-|3pUTR|ENSG00000162413|unk|FALSE|unique (ssRNA)", "RNA": "GGGAGUUCUACAGUCCGACGAUCCCCAAAGUAGCCUUGGCUUGAGUUUUUGUCCUUGCCUCCUUUUUAGAGAAGAGGGCAUUUAGACUGCAUUUUCCUGGUUAAAGAAGGUUAAAGCAAAUGUUUAUUGCCUUUUCUAGUGAACAACAGAGGAUUGAGCAUCA"}}, "note": "The list shows a part of the results.", "data": [{"molecular_target": "T1, UNK ZnF1-6 (called full-length) (human, UniProt Q9C0B0 30-357)", "T1 sequence": "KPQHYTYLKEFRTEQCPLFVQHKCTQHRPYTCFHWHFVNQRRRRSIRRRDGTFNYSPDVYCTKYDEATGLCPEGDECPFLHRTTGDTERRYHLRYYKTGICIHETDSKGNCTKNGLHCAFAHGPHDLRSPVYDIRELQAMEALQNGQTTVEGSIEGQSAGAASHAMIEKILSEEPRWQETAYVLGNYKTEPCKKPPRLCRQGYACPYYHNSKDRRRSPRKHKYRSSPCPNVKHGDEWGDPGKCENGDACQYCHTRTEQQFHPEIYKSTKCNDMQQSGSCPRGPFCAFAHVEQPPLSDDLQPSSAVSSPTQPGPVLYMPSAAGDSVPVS", "assay": "nsRBNS (natural sequence RNA bind-n-seq); RBNS binding buffer (assumed for nsRBNS): 25 mM Tris pH 7.5, 150 mM KCl, 3 mM MgCl2, 0.01% Triton X-100, 500 ug/ml BSA, 20 U/ml SUPERase-In, 4 C; UNK is unkempt and MSI1 is Musashi-1; names of the RNAs are library labels; protein concentration not given here; high values mean tight binding", "units": {"binding signal": "enrichment R"}, "values": [{"binder": "B1", "binding signal": 0.746}, {"binder": "B2", "binding signal": 1.21}, {"binder": "B3", "binding signal": 0.974}, {"binder": "B4", "binding signal": 0.774}, {"binder": "B5", "binding signal": 0.561}, {"binder": "B6", "binding signal": 0.53}, {"binder": "B7", "binding signal": 0.723}, {"binder": "B8", "binding signal": 0.913}, {"binder": "B9", "binding signal": 0.767}, {"binder": "B10", "binding signal": 0.672}, {"binder": "B11", "binding signal": 0.371}, {"binder": "B12", "binding signal": 1.09}, {"binder": "B13", "binding signal": 1.13}, {"binder": "B14", "binding signal": 0.382}]}]}
